This note sets out measurements from ChEMBL document CHEMBL4888484, “Replenishing the malaria drug discovery pipeline: Screening and hit evaluation of the MMV Hit Generation Library 1 (HGL1) against asexual blood stage Plasmodium falciparum ,using a nano luciferase reporter read-out” (2022).

Out of some 150,000 compounds screened, about 540 (0.36%) showed an effect of 50% or more. The list shows a part of the results.

For this assay, the system named is Plasmodium falciparum. The experiment in a line: Primary screen in NF54 nanoGlo assay, in single point, at 2uM, 72h; a lower Z score goes with more inhibition. The assay is classed as functional, Erythrocyte. To be noted: timepoint 72 hour.
A word on the % Inhibition: it is the relative decrease from the control value, in per cent. Regarding `CCc1cccc(-n2nnnc2N2CCN(C(=O)Nc3cccc(Br)c3)CC2)c1`, the “% Inhibition” value is -4% and the Z score is recorded as 0.64.

Turning to `CC(C)Cn1c(C[C@H]2CCN(C(=O)C(C)(C)C)C2)nc2cccnc21`, the “% Inhibition” value is given as -13% and the Z score amounted to 1.62.

Regarding `Cc1cccc(NC(=O)CN(C)Cc2cc(Cl)cc3c2OCOC3)c1C`, the “% Inhibition” value amounted to 6% and the Z score is on record as -0.83.

Regarding `CC(C)Cn1cc(NC(=O)N2Cc3ccccc3N(C)C[C@@H]2C)c(C(F)F)n1`, the “% Inhibition” value is recorded as -1% and the Z score turned out to be 0.09.

Regarding `COc1ccc(CC(=O)N2CCN(c3nc4c(s3)c(C)nn4-c3ccc(OC)cc3)CC2)cc1`, the “% Inhibition” value came out at 13% and the Z score was -2.36.

For the molecule `O=C(CN1CCCCCC1)N1CC=C(n2c(=O)[nH]c3ccccc32)CC1`, the “% Inhibition” value was -4% and the Z score is listed as 0.56.

As for `CCC(C)(C)NC(=O)Cn1c(C)ccc(NS(=O)(=O)c2ccc(C)cc2)c1=O`, the “% Inhibition” value was -4% and the Z score is on record as 0.69.

Consider `Cc1c(C(=O)NCCc2cnn(-c3ccccc3)c2)oc2c1C(=O)CC(C)(C)C2`, for which the “% Inhibition” value is on record as -15% and the Z score is listed as 2.81.

On to `CC(CCS(C)(=O)=O)NC(C)c1cc2ccccc2s1` (centres undefined), for which the “% Inhibition” value is reported as 6% and the Z score is given as -1.21.

For the molecule `CN(C(=O)OC(C)(C)C)C1CCN(C(=O)NC2CCOCC2)CC1`, the “% Inhibition” value is on record as -8% and the Z score came out at 1.1.

`CCc1c(C)nn(CC(=O)N(C)[C@@H](C)c2nc(C)sc2C)c1C`: the “% Inhibition” value was 2% and the Z score is -0.36.

In the case of `COC(=O)C[C@H](NC(=O)c1cc(OC)ns1)c1ccncc1`, the “% Inhibition” value was found to be 5% and the Z score is given as -0.6.

As for `Cc1c(C#N)c2nc3c(c(-c4ccccc4)c2n1-c1ccccc1)CCCC3`, the “% Inhibition” value is listed as -16% and the Z score is on record as 3.01.

Regarding `COC(=O)Nc1ccc(NCc2c[nH]nc2-c2cccnc2)cc1F`, the “% Inhibition” value was -2% and the Z score was found to be 0.25.

`Cc1ccc(-c2nc3ccc(-c4cc5ccccc5s4)cn3c2CCC(=O)N2CCOCC2)cc1`: the “% Inhibition” value is listed as -18% and the Z score is on record as 2.17.

On to `CN1c2cc(Cl)ccc2C(=O)NC12CCN(C(=O)Nc1ccc3c(c1)OCCO3)CC2`, for which the “% Inhibition” value is listed as -8% and the Z score is listed as 1.05.

With `Cc1nc(CNS(=O)(=O)Cc2cc(Cl)ccc2F)no1`, the “% Inhibition” value is given as -1% and the Z score was 0.16.

Take `Cc1nc(-c2ccc3c(c2)n(CC(=O)NCc2ccc4c(c2)OCO4)c(=O)n3C(C)C)no1`: the “% Inhibition” value is reported as -1% and the Z score was 0.15.

With `CC(C)CCn1nnnc1[C@]1(N(C)C)CCCN(C(=O)CN2CCOCC2)C1`, the “% Inhibition” value was found to be 2% and the Z score is listed as -0.27.

For the molecule `CC1CN(C(=O)c2ccc3ncn(C)c3n2)C(C)CN1C` (centres undefined), the “% Inhibition” value worked out at 2% and the Z score is -0.28.

With `CC(C)(CCO)CNC[C@@H]1CC=CCC1`, the “% Inhibition” value was 2% and the Z score is given as -0.4.

With `COc1cccc(-c2cnc(C(F)(F)F)nc2C2CCN(C(=O)CCn3ccc(C)n3)CC2)c1`, the “% Inhibition” value was found to be 8% and the Z score is -1.06.

With `CNc1snc(C)c1C(=O)N1CCN(c2cccc(OC)c2)CC1`, the “% Inhibition” value is given as 8% and the Z score is on record as -1.51.

For `CCn1ccc2cc(S(=O)(=O)N3CCC[C@H](C(=O)NCc4cccc(F)c4)C3)ccc21`, the “% Inhibition” value is on record as 1% and the Z score was -0.16.

With `CC(=O)N1CCN(C(=O)CCc2c(C)nn(C)c2C)CC1`, the “% Inhibition” value is given as 4% and the Z score is recorded as -0.55.

Consider `O=S(=O)(NCc1cccnc1)c1ccc2c(c1)-c1oncc1CO2`, for which the “% Inhibition” value came to 2% and the Z score is -0.28.

In the case of `CC(C)n1cc(Br)cc1C(=O)N(C)S(=O)(=O)C(C)C`, the “% Inhibition” value is on record as 0% and the Z score is on record as -0.01.

Regarding `COC(=O)[C@H](CCOc1cccc(C#N)c1)NC(=O)OC(C)(C)C`, the “% Inhibition” value worked out at 6% and the Z score is given as -1.2.

On to `O=C(c1ccc(=O)n(Cc2ccc(Cl)cc2)c1)N1CCc2ccccc21`, for which the “% Inhibition” value is listed as -12% and the Z score is recorded as 1.44.

In the case of `Cc1ccc(S(=O)(=O)Nc2ccc(C)n(CC(=O)NC3CCCC3)c2=O)cc1`, the “% Inhibition” value is given as -16% and the Z score was 2.13.

As to `COc1ccccc1[C@H]1CN(Cc2ncc(C)c(OC)c2C)C[C@@H]1C(=O)O`, the “% Inhibition” value is given as -12% and the Z score is listed as 1.66.

On to `Cn1cc2ccc(CNC(=O)c3ccc4c(c3)CCCC(=O)N4)cc2n1`, for which the “% Inhibition” value is on record as -12% and the Z score is 1.59.

On to `Cc1csc(CNC(=O)c2cc(C)c(C)s2)n1`, for which the “% Inhibition” value is -6% and the Z score is recorded as 0.99.

Turning to `COc1ccc(C2CC(C)CN2S(=O)(=O)CC2(C#N)CC2)cc1` (centres undefined), the “% Inhibition” value was 5% and the Z score is on record as -0.66.

Turning to `O=C(c1cccc2c1NCCC2)N1CCn2nc([C@@H](O)C3CC3)cc2C1`, the “% Inhibition” value is -2% and the Z score is given as 0.23.

As for `CCc1nnc(CN(C)C2CCN(c3cccc(-c4ccnc(C)n4)c3)CC2)o1`, the “% Inhibition” value is given as -14% and the Z score worked out at 2.06.

Turning to `CCCN(CC#N)C(=O)[C@@H]1CCCCN1C(C)=O`, the “% Inhibition” value is reported as -9% and the Z score is 1.53.

With `C[C@H](Nc1ncccc1C#N)c1nnc(C(F)(F)F)[nH]1`, the “% Inhibition” value is listed as -13% and the Z score was found to be 2.33.

In the case of `COc1ccc(OC)c2c1cc(C(=O)NCc1ccco1)n2C`, the “% Inhibition” value was found to be 3% and the Z score was -0.43.

Turning to `O=C1CN(C(=O)c2nn(CCCc3ccccc3)c3c2CN(Cc2c(F)cccc2F)CC3)CCN1`, the “% Inhibition” value was 1% and the Z score is recorded as -0.16.

`CCCN1CCN(S(=O)(=O)c2cccc3nonc23)CC1`: the “% Inhibition” value is on record as 33% and the Z score is listed as -0.42.

In the case of `CN1C(=O)[C@H](CC(=O)NCCCn2nccc2C2CC2)N(C)C1=O`, the “% Inhibition” value is listed as -5% and the Z score was found to be 0.94.

`CC(C)c1ccn(C2(C(=O)O)CCN(C(=O)c3cccc(F)c3)CC2)n1`: the “% Inhibition” value is listed as -8% and the Z score amounted to 1.4.

Regarding `CC(C)(C)NCCNC(=O)C(=O)Nc1cc(F)c(F)c(F)c1`, the “% Inhibition” value was -39% and the Z score was 4.52.

For `Cc1cc(-c2c(C)sc(C)c2S(=O)(=O)N2CCN(c3ccc(Cl)cc3)CC2)[nH]n1`, the “% Inhibition” value was -12% and the Z score worked out at 1.44.

For the molecule `O=C1OCCN1Cc1nc(-c2cccc(CN3CCCCC3)c2)no1`, the “% Inhibition” value is listed as -10% and the Z score was 1.28.

Regarding `N[C@H]1CN(c2ccnc3c(C(F)(F)F)cccc23)C[C@@H]1C1CC1`, the “% Inhibition” value is -14% and the Z score was 1.34.

In the case of `O=C(c1c[nH]nc1-c1ccccc1)N1CC(F)(F)C[C@H]1COc1ccccc1`, the “% Inhibition” value is -8% and the Z score amounted to 1.41.

Consider `COc1ccnc(N(CCO)C(C)C)n1`, for which the “% Inhibition” value is recorded as 5% and the Z score is listed as -0.78.

In the case of `COc1ccc(-c2csc(N3N=C(C(C)C)C[C@]3(O)C(F)(F)F)n2)cc1`, the “% Inhibition” value is -33% and the Z score amounted to 3.89.

With `COCOc1ccc(NC(=O)c2cc(-c3ccccc3C)nc3c2cnn3C(C)C)cc1`, the “% Inhibition” value is on record as 8% and the Z score is listed as -1.13.

Regarding `O=S(=O)(N1CCCC1)N1CCC(n2cc(C3CCCC3)nn2)CC1`, the “% Inhibition” value is reported as -15% and the Z score was determined as 2.29.
